Results are given in words; binding and its absence hold for the method and conditions named. Binding seen in cells or lysates may run through a third protein. Some results given as binding are weak or reduced against the parent protein; the word gives no strength. For some assays here: Tags and fused reporters may be left off the sequences shown.
Tests used:
[1] = biological target: T1, Myc-RalGDS in full length (1-914 aa) (human) (UniProt Q12967); assay: co-IP; MCF7 cells co-transfected with HA-RILP and myc-RalGDS constructs; precipitated with rabbit anti-myc antibody and protein A/G agarose, 4 C; blot with anti-HA and anti-myc
T1 sequence: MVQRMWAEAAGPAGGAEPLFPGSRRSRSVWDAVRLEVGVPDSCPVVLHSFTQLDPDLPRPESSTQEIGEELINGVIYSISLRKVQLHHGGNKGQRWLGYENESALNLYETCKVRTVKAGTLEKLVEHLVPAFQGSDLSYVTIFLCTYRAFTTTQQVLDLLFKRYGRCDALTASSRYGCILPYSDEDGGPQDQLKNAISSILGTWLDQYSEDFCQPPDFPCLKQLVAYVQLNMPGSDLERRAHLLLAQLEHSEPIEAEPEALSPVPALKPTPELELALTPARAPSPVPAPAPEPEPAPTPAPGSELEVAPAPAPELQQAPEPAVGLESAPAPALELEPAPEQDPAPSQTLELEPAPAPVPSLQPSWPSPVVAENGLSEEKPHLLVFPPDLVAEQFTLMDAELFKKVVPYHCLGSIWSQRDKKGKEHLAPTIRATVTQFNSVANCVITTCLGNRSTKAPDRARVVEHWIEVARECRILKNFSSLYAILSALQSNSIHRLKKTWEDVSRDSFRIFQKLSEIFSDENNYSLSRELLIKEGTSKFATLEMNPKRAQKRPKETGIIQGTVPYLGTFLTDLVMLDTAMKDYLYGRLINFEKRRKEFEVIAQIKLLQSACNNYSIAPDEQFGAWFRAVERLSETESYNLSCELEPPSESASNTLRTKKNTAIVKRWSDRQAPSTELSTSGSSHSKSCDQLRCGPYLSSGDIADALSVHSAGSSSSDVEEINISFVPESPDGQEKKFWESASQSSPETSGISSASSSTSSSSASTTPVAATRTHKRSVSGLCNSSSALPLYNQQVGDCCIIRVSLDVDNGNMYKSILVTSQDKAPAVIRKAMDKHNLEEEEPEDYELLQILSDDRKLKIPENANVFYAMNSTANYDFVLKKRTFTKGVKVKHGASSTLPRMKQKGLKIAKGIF

Chains of the proteins cited; added tags and fusions are not shown. Lines headed by an entry give the natural chain unless they say otherwise; changes in a name come on top. Residues count along the entry.
UniProt Q8IYI6, residues 122-333: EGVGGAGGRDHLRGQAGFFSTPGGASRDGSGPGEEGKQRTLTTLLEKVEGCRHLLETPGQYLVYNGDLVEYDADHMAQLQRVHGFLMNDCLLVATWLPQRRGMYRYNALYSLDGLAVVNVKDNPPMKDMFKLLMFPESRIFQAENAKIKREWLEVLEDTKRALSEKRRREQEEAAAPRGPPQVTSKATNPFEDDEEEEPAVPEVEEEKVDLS
UniProt Q96NA2: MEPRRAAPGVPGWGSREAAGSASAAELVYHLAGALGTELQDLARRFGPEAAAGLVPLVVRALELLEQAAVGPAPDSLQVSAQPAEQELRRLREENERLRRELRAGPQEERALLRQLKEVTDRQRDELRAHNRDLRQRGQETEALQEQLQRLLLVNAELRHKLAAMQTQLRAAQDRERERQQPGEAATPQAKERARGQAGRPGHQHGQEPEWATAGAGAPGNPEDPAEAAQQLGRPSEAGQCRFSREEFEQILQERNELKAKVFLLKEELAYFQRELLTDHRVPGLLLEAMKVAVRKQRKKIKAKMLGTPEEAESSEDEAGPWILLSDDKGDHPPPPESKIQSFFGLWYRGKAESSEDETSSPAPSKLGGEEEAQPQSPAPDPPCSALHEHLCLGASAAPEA
GST-RILP(1-198): residues 1-198 of Q96NA2
GST-RILP(199-401): residues 199-401 of Q96NA2
UniProt Q96KP1, residues 1-120: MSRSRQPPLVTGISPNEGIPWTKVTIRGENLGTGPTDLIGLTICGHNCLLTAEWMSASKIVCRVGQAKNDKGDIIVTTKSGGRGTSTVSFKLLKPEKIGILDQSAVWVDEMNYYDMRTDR

[2] = biological target: T2, myc-RalGDS(GEF) (1-660aa) (human) (UniProt Q12967); assay: as above
T2 sequence: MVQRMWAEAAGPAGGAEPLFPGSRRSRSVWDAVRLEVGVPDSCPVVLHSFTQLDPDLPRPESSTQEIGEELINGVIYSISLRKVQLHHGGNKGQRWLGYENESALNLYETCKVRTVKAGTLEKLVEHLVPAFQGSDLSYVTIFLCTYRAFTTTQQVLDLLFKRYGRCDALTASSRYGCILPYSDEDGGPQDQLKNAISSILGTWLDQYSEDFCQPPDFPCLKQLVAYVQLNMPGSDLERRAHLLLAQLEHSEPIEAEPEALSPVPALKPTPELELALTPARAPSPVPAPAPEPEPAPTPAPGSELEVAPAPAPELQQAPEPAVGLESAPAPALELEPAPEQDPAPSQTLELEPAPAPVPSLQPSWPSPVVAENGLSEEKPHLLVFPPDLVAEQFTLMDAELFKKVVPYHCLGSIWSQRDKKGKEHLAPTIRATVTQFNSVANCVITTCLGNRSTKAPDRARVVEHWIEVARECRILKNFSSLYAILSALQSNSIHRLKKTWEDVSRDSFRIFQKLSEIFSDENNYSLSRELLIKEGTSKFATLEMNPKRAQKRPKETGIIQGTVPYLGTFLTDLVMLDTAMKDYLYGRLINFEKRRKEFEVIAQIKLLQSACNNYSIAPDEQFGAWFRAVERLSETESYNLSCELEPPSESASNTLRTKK

[3] = biological target: T3, myc-RalGDS(RBD) (661-914 aa) (human) (UniProt Q12967); assay: as above
T3 sequence: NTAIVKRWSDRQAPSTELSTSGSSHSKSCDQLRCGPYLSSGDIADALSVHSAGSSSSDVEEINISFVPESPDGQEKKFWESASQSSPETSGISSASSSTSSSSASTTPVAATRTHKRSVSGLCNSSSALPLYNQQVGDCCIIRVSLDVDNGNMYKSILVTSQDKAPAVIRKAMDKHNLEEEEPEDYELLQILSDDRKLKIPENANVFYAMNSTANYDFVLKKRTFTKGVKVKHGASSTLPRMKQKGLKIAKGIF

[4] = biological target: GST-Exo84(RBD) (human) (UniProt Q8IYI6); assay: pull-down; GST-fusion proteins (20 ug) immobilised on GST-Sepharose-4B resin; lysates of MCF7 or MDA-MB-231 cells, untransfected or transfected (myc-RalGDS constructs; GFP, GFP-RILP, GFP-RILP with myc-RalGDS; HA-RalA); 25 mM Tris-HCl, 100 mM NaCl, 1.0% Triton X-100, pH 7.4; western blot; only the target purified
[5] = biological target: GST-RILP (UniProt Q96NA2); assay: as above
[6] = biological target: GST-Sec5(RBD) (human) (UniProt Q96KP1); assay: as above
[7] = biological target: GST-RILP(1-198) (UniProt Q96NA2); assay: as above
[8] = biological target: GST-RILP(199-401) (UniProt Q96NA2); assay: as above

HA-RILP (from UniProt Q96NA2 1-401)
binding [1]: binds | binding [2]: binds | binding [3]: no binding

B1: RalA (from cell lysates, detected with anti-RalA antibody) (protein, UniProt P11233 1-206)
chain: MAANKPKGQNSLALHKVIMVGSGGVGKSALTLQFMYDEFVEDYEPTKADSYRKKVVLDGEEVQIDILDTAGQEDYAAIRDNYFRSGEGFLCVFSITEMESFAATADFREQILRVKEDENVPFLLVGNKSDLEDKRQVSVEEAKNRAEQWNVNYVETSAKTRANVDKVFFDLMREIRARKMEDSKEKNGKKKRKSLAKRIRERCCIL
binding [4]: binds | binding [5]: no binding | binding [6]: binds

B2: endogenous RalGDS (protein, UniProt Q12967 1-914)
chain: MVQRMWAEAAGPAGGAEPLFPGSRRSRSVWDAVRLEVGVPDSCPVVLHSFTQLDPDLPRPESSTQEIGEELINGVIYSISLRKVQLHHGGNKGQRWLGYENESALNLYETCKVRTVKAGTLEKLVEHLVPAFQGSDLSYVTIFLCTYRAFTTTQQVLDLLFKRYGRCDALTASSRYGCILPYSDEDGGPQDQLKNAISSILGTWLDQYSEDFCQPPDFPCLKQLVAYVQLNMPGSDLERRAHLLLAQLEHSEPIEAEPEALSPVPALKPTPELELALTPARAPSPVPAPAPEPEPAPTPAPGSELEVAPAPAPELQQAPEPAVGLESAPAPALELEPAPEQDPAPSQTLELEPAPAPVPSLQPSWPSPVVAENGLSEEKPHLLVFPPDLVAEQFTLMDAELFKKVVPYHCLGSIWSQRDKKGKEHLAPTIRATVTQFNSVANCVITTCLGNRSTKAPDRARVVEHWIEVARECRILKNFSSLYAILSALQSNSIHRLKKTWEDVSRDSFRIFQKLSEIFSDENNYSLSRELLIKEGTSKFATLEMNPKRAQKRPKETGIIQGTVPYLGTFLTDLVMLDTAMKDYLYGRLINFEKRRKEFEVIAQIKLLQSACNNYSIAPDEQFGAWFRAVERLSETESYNLSCELEPPSESASNTLRTKKNTAIVKRWSDRQAPSTELSTSGSSHSKSCDQLRCGPYLSSGDIADALSVHSAGSSSSDVEEINISFVPESPDGQEKKFWESASQSSPETSGISSASSSTSSSSASTTPVAATRTHKRSVSGLCNSSSALPLYNQQVGDCCIIRVSLDVDNGNMYKSILVTSQDKAPAVIRKAMDKHNLEEEEPEDYELLQILSDDRKLKIPENANVFYAMNSTANYDFVLKKRTFTKGVKVKHGASSTLPRMKQKGLKIAKGIF
binding [5]: binds

B3: Myc-RalGDS in full length (1-914 aa) (protein, UniProt Q12967 1-914)
chain: MVQRMWAEAAGPAGGAEPLFPGSRRSRSVWDAVRLEVGVPDSCPVVLHSFTQLDPDLPRPESSTQEIGEELINGVIYSISLRKVQLHHGGNKGQRWLGYENESALNLYETCKVRTVKAGTLEKLVEHLVPAFQGSDLSYVTIFLCTYRAFTTTQQVLDLLFKRYGRCDALTASSRYGCILPYSDEDGGPQDQLKNAISSILGTWLDQYSEDFCQPPDFPCLKQLVAYVQLNMPGSDLERRAHLLLAQLEHSEPIEAEPEALSPVPALKPTPELELALTPARAPSPVPAPAPEPEPAPTPAPGSELEVAPAPAPELQQAPEPAVGLESAPAPALELEPAPEQDPAPSQTLELEPAPAPVPSLQPSWPSPVVAENGLSEEKPHLLVFPPDLVAEQFTLMDAELFKKVVPYHCLGSIWSQRDKKGKEHLAPTIRATVTQFNSVANCVITTCLGNRSTKAPDRARVVEHWIEVARECRILKNFSSLYAILSALQSNSIHRLKKTWEDVSRDSFRIFQKLSEIFSDENNYSLSRELLIKEGTSKFATLEMNPKRAQKRPKETGIIQGTVPYLGTFLTDLVMLDTAMKDYLYGRLINFEKRRKEFEVIAQIKLLQSACNNYSIAPDEQFGAWFRAVERLSETESYNLSCELEPPSESASNTLRTKKNTAIVKRWSDRQAPSTELSTSGSSHSKSCDQLRCGPYLSSGDIADALSVHSAGSSSSDVEEINISFVPESPDGQEKKFWESASQSSPETSGISSASSSTSSSSASTTPVAATRTHKRSVSGLCNSSSALPLYNQQVGDCCIIRVSLDVDNGNMYKSILVTSQDKAPAVIRKAMDKHNLEEEEPEDYELLQILSDDRKLKIPENANVFYAMNSTANYDFVLKKRTFTKGVKVKHGASSTLPRMKQKGLKIAKGIF
binding [5]: binds | binding [7]: binds | binding [8]: no binding

B4: myc-RalGDS(GEF) (1-660aa) (domain or fragment, UniProt Q12967 1-660)
chain: MVQRMWAEAAGPAGGAEPLFPGSRRSRSVWDAVRLEVGVPDSCPVVLHSFTQLDPDLPRPESSTQEIGEELINGVIYSISLRKVQLHHGGNKGQRWLGYENESALNLYETCKVRTVKAGTLEKLVEHLVPAFQGSDLSYVTIFLCTYRAFTTTQQVLDLLFKRYGRCDALTASSRYGCILPYSDEDGGPQDQLKNAISSILGTWLDQYSEDFCQPPDFPCLKQLVAYVQLNMPGSDLERRAHLLLAQLEHSEPIEAEPEALSPVPALKPTPELELALTPARAPSPVPAPAPEPEPAPTPAPGSELEVAPAPAPELQQAPEPAVGLESAPAPALELEPAPEQDPAPSQTLELEPAPAPVPSLQPSWPSPVVAENGLSEEKPHLLVFPPDLVAEQFTLMDAELFKKVVPYHCLGSIWSQRDKKGKEHLAPTIRATVTQFNSVANCVITTCLGNRSTKAPDRARVVEHWIEVARECRILKNFSSLYAILSALQSNSIHRLKKTWEDVSRDSFRIFQKLSEIFSDENNYSLSRELLIKEGTSKFATLEMNPKRAQKRPKETGIIQGTVPYLGTFLTDLVMLDTAMKDYLYGRLINFEKRRKEFEVIAQIKLLQSACNNYSIAPDEQFGAWFRAVERLSETESYNLSCELEPPSESASNTLRTKK
binding [5]: binds

Source: article PMC4632296
